Out of some 45,000 compounds screened, about 65 (0.1%) were called active. Calls follow the shape of the dose curve; as a rule, active = well fitted activation curve with a large enough effect; inconclusive = small, poorly fitted or top-dose-only effect; inactive = no such curve, though single readings can be large or run the other way. The list shows a part of the results. Peptide text beside a SMILES is read from it.
Each molecule was assayed against Galactocerebrosidase (Homo sapiens) (UniProt P54803) (assay: A Novel Cell-Based Assay to Identify Small Molecules for B -Galactocerebrosidase). Settings: 145M-Twi-hGALC-G270D cells (Twitcher mouse brain line with human GALC G270D), HMU-beta-Gal fluorescence, 48 h; series mostly up to 57.5 µM; activation: at the top concentration.
Outline: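 Fluorescence readout: HMU-β-gal cleavage by mutant GALC (0.1 mM final, citrate/phosphate pH 5.2 with 1 mg/mL taurocholate), stopped with carbonate/bicarbonate plus Triton X-100. Cells: murine Twitcher 145M-Twi expressing human G270D GALC; qHTS for activators.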
Also: 0% is about no effect; nearly all actives have a fitted effect of over 65% in size.

UniProt P54803, sequence (P54803 whole entry, looked up): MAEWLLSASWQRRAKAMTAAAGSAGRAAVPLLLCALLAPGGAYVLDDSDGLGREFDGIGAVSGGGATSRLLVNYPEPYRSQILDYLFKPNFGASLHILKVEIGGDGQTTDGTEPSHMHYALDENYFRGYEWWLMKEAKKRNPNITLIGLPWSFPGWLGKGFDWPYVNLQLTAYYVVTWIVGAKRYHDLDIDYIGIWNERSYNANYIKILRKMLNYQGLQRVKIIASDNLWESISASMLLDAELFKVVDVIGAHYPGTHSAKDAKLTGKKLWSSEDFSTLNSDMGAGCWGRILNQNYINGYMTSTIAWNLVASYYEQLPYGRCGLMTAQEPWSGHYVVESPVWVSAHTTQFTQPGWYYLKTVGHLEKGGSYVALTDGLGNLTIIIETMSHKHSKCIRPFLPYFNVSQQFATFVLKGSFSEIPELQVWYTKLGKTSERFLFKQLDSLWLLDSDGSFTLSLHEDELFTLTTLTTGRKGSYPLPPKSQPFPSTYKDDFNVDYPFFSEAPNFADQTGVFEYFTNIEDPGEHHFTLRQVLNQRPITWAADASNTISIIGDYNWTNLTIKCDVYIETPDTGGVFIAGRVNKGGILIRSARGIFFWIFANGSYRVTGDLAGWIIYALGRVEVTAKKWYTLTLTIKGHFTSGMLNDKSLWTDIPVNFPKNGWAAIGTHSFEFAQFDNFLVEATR

activation, inactive:
O=C(NCCCN1CCCCC1)c1[nH]c2ccccc2c1Sc1ccc(Cl)cc1 -6.98%, Cc1oc(-c2ccc(C(=O)NCc3ccccc3F)cc2)nc1COc1ccccc1 -10.5%, COc1ccc(NC(=O)CSc2nc(-c3ccccc3)[nH]c2-c2ccccc2)cc1OC -9.41%, CCN(CC)c1ccc(NC(=O)CN2CCN(S(=O)(=O)c3cc(Cl)ccc3OC)CC2)cc1 -14.8%, CN(C(=O)C1CCN(c2ncnc3c2nc2n3CCCCC2)CC1)c1ccccc1F -11.9%, CC(=O)c1ccc(N2CCN(C(=O)c3cc4c(s3)-c3ccccc3OC4)CC2)cc1 21.8%, CC(C)C(NS(=O)(=O)c1ccc2c(c1)oc(=O)n2C)C(=O)NCc1ccccc1 (stereo not given) -13.6%, Cc1nc(-c2ccc(S(=O)(=O)N(Cc3ccccc3)C(C)C)cc2)co1 -8.88%, Cn1cc(C(=O)Nc2ccc(C#N)cc2)c2ccccc2c1=O -5.87%, COc1ccc(CCn2c(=O)c3cccnc3n(CC(=O)Nc3ccc(C)cc3C)c2=O)cc1OC 1.16%, O=C(Nc1cccc(C(=O)OCc2cc(=O)n3c4c(sc3n2)CCCC4)c1)c1cccc(Cl)c1 -17.2%, COc1cccc(NC(=O)Cn2nnc(C(=O)NCCc3ccccc3)c2N)c1 -5.27%, Cc1ccc(Cl)cc1NC(=O)C1CCN(C(=O)c2cnn(-c3ccccc3)c2-n2cccc2)CC1 -16.3%, O=C(CSc1nc2c([nH]c3ccccc32)c(=O)n1-c1ccc(F)cc1)NCc1ccc(F)cc1 -10.5%, CCOc1ccc(CCNC(=O)c2ccc3c(c2)nc2n3CCOC2)cc1OCC -2.41%, CC(C)OCCCNC(=O)CCCn1c(SCC(N)=O)nc2c(sc3ccccc32)c1=O -7.77%, CCOc1ccc(-c2cc(-c3nc(-c4ccc(C)cc4)no3)[nH]n2)cc1 -6.88%, CC(=O)c1cccc(NC(=O)C(C)n2c(=O)cc(-c3ccccc3)c3c(C)nn(C)c32)c1 (stereo not given) -21.5%, COc1cccc(CNC(=O)c2ccc(NC(=O)N3CCCCc4ccccc43)cc2)c1OC -12.7%, CCc1cccc(C)c1NS(=O)(=O)c1c(C)nc2sccn2c1=O -9.4%, O=C(Cn1c(=O)oc2cc(S(=O)(=O)N3CCCC3)ccc21)NCc1ccc(F)cc1 -2.26%, COc1cccc(CNC(=O)c2c(C)oc3nc(C)nc(N4CCOCC4)c23)c1 -14.7%, CCOC(=O)C1CCN(C(=O)CSc2n[nH]c(-c3ccc(F)cc3)n2)CC1 -6.45%, COC(=O)CSc1ncc2c(n1)-c1ccccc1N(Cc1cccc(F)c1)S2(=O)=O -9.62%, CCN1C(=O)c2ccccc2S(=O)(=O)c2ccc(C(=O)NCc3ccccc3Cl)cc21 -15.1%, O=C(O)[C@@H]1[C@H]2C[C@H]3c4[nH]c5ccccc5c4CCN3C[C@@H]2CC[C@@H]1O -1.64%, O=C(Cn1ccc2cc(S(=O)(=O)N3CCCCCC3)ccc21)NCCc1ccc(Cl)cc1 -6.83%, Cc1cccc(C(=O)Nc2ccc(OCc3cc(=O)n4ccsc4n3)cc2)c1 3.5%, O=C(NC1CCCCCC1)C1c2ccccc2C(=O)N1Cc1ccccc1Cl (stereo not given) -10.6%, CCN(CC)S(=O)(=O)c1ccc2c(c1)N(CC(=O)N1CCN(c3ccc(Cl)cc3)CC1)C(=O)CO2 -16.1%, CC(C)OC(=O)c1cccnc1SCC(=O)Nc1ccc(C(F)(F)F)cc1Cl 5.76%, Cc1ccc(-n2c3c(cc(C(=O)Nc4cccc(Cl)c4)c2=O)C(=O)CC(C)(C)C3)cc1 21.9%, CCN1CCN(C(=O)c2ccc3c(c2)N(Cc2ccccc2F)C(=O)c2ccccc2S3=O)CC1 (stereo not given) -1.23%, CCc1ccc(NC(=O)C2CCCN(S(=O)(=O)c3c(C)noc3/C=C/N(C)C)C2)cc1 (stereo not given) -4.82%, CCOc1ccccc1-c1nc(SCC(=O)c2ccc(OC)c(Br)c2)n[nH]1 -14.2%, Cc1ccc(Cl)cc1N1CCN(C(=O)CCCCCn2c(=O)[nH]c3ccccc3c2=O)CC1 -16.3%, CNS(=O)(=O)c1cc(-c2nnc(Nc3cc(C)ccc3C)c3ccccc23)ccc1C -28.3%, COc1ccccc1N1CCN(C(=O)c2cnc(N3CCCCC3)c3ccccc23)CC1 -16.4%, Cc1ccc(-c2nnc(SCC(=O)NCc3ccccc3)nc2-c2ccc(C)cc2)cc1 -1.36%, CCc1ccc(C(=O)NC(Cc2c[nH]c3ccccc23)C(=O)OCC(=O)c2ccc(Br)cc2)cc1 (stereo not given) -2.04%, Cc1cc2c(cc3c(SCC(=O)Nc4cccc(Cl)c4C)nnc(C)n32)o1 -17%, CCOC(=O)c1cnc2ccccc2c1Nc1cccc(OC)c1 -14.2%, Cc1cnc(=O)[nH]c1SCC(=O)Nc1nc2ccccc2s1 -17.3%, Cc1ccc2oc(-c3cccc(NC(=O)c4sc5c([N+](=O)[O-])cccc5c4Cl)c3)nc2c1 -11%, O=c1c2sccc2n(Cc2cc(=O)n3ccccc3n2)c(=O)n1-c1cccc(C(F)(F)F)c1 -12.6%, O=C(COc1ccc(F)cc1)NCCc1nc2ccccc2[nH]1 -14.6%, CCOc1ccc(CCNC(=O)c2c(C)oc3ncn(C)c(=O)c23)cc1 -13.5%, Cc1cc(-c2ccc(C)c(S(=O)(=O)Nc3cccc(C#N)c3)c2)on1 -9.07%, COc1ccc(/C=C/C(=O)Nc2ccc(Cl)c(Cl)c2)cc1 -2.72%, Cc1ccccc1NS(=O)(=O)c1ccc2[nH]c3c(c2c1)CCCCC3 -3.84%, O=C(NCCCN1CCOCC1)c1ccc(Cl)cc1 -13.9%, Cc1ccc(Cl)cc1N1CCN(C(=O)c2ccc3nc(N4CCC(C)CC4)sc3c2)CC1 -2.76%, CCOC(=O)c1cc(-c2ccccc2)n(CCC(=O)Nc2nc3c(C)cccc3s2)c1C -0.899%, CC(C)CCOc1ccccc1Cn1c(=O)sc2ccccc21 -14.1%, Cc1ccc(-c2cc3c(N4CCN(c5cc(C)ccc5C)CC4)nccn3n2)cc1 -19.1%, CC(=O)N1c2c(cc(Br)cc2S(=O)(=O)N2CCN(c3ccccc3)CC2)CC1C (stereo not given) -11.3%, CCc1ccc(-n2c(=O)c3c(C)c(C(=O)N(C)C)sc3n(Cc3ccccc3F)c2=O)cc1 -2.04%, CCOc1ccccc1CNC(=O)CCn1ccc2cc(S(=O)(=O)N3CCCCC3)ccc21 -15.5%, Cn1c(=O)c2sccc2n2c(CCCC(=O)Nc3ccc(Oc4ccc(Cl)cc4)cc3)nnc12 -9.22%, COc1ccc(-c2cc(OC(=O)c3cccc(C)c3)c3c(C)oc(C)c3c(=O)c2)cc1 -13.9%, Cc1cc(C)c(NC(=O)Cn2nnc(C(=O)Nc3ccc(F)cc3F)c2N)c(C)c1 3.21%, Cc1ccc(CNC(=O)c2ccc3c(c2)nc2n3CCCC2)cc1 -25.5%, CC(=O)Nc1ccc(NC(=O)c2c(C)nn(-c3ccccc3)c2-n2cccc2)cc1 -10.3%, Cc1ccc(CNc2ncnc3c2cnn3-c2ccc(C)cc2C)cc1 -16.2%, Cc1cc(C)n(-c2nc(C)c(C)c(=O)n2CC(=O)Nc2ccc(Cl)c(Cl)c2)n1 -14.1%, COc1ccc(NC(=O)CCNS(=O)(=O)c2ccc3c(c2)CCN3C(=O)C2CC2)cc1Cl -33.2%, COc1ccc(-c2nnc(SCC(=O)Nc3cccc(Cl)c3C)nc2-c2ccc(OC)cc2)cc1 3.71%, CCn1cc(C(=O)NCc2ccccc2OC)c(=O)c2cc(S(=O)(=O)N3CCCCCC3)ccc21 5.73%, CCOC(=O)c1cc(-c2ccccc2)n(CCCC(=O)Nc2ccc(C)cc2Cl)c1C -4.05%, COc1cccc(NC(=O)c2nnn(Cc3ccc(OC)c(Br)c3)c2N)c1 -4.02%, CCc1nn2c(=O)cc(COC(=O)C3CCCCC3)nc2s1 -7.28%, Cc1cc(C)c(NS(=O)(=O)c2cc(-c3cnc(C4CC4)o3)ccc2C)c(C)c1 -15.3%, CC(=O)N1CCN(c2ccc(O)cc2)CC1 -11.3%, COc1ccc(CNC(=O)C2CCN(S(=O)(=O)c3ccc4nc5c(c(C(=O)O)c4c3)CC(C)CC5)CC2)cc1 (stereo not given) 2.07%, CCc1ccc(NC(=O)C2CCCN(S(=O)(=O)c3cccc4nonc34)C2)cc1 (stereo not given) -8.22%, CCOc1ccc(NC(=O)Cn2cnc3c(oc4ccccc43)c2=O)cc1 -12.9%, CN1C(=O)Cc2cc(S(=O)(=O)CCC(=O)N3CCN(c4cccc(Cl)c4)CC3)ccc21 -20.4%, COc1cc(-c2noc(C3CC(=O)N(c4cc(C)ccc4C)C3)n2)cc(OC)c1OC (stereo not given) -13.5%, Cc1ccsc1CCN1C(=O)N(c2ccc(F)cc2)C(=O)C1CC(=O)Nc1ccccc1 (stereo not given) -5.33%, COc1cccc(NS(=O)(=O)c2cc3c4c(c2)C(C)C(=O)N4CCC3)c1 (stereo not given) -9.98%, CCC(C)NC(=O)c1ccc2c(c1)N=C(C)c1cc(C)ccc1S2 (stereo not given) -7.08%, COC(=O)[C@H](Cc1ccccc1)NC(=O)[C@@H](N)CC(=O)O (H-Asp-Phe-OMe) -13.4%, Cc1ccc2c(=O)cc(C(=O)Nc3c(C(=O)c4ccccc4)oc4ccccc34)oc2c1C 0.628%, CC(C)(C)OC(=O)N1CCC(c2c(C(=O)NCc3ccccn3)cnn2-c2ccc(F)cc2)CC1 -1.61%, Cc1cc(C)c2c(=O)cc(C(=O)Nc3ccc(S(=O)(=O)Nc4onc(C)c4C)cc3)oc2c1 -14.3%, COc1ccc(-n2nnc(C(=O)Nc3ccccc3F)c2N)cc1 -13%, COc1cccc(NC(=O)C(=O)NCCc2csc3nc(-c4ccccc4C)nn23)c1 -5.66%, CCc1ccccc1N(c1nc(-c2ccc(OC)c(OC)c2)no1)c1nc(-c2ccc(OC)c(OC)c2)no1 -14.3%, CCN1C(=O)c2ccccc2Sc2ccc(NC(=O)Cc3ccc(OC)cc3)cc21 -17.4%, CCOc1ccc(NCc2cccn2-c2nnc(N3CCC(C(=O)NCc4cccc(OC)c4)CC3)s2)cc1 -11.8%, CC(C)CC(=O)Nc1nnc2n1CCS2 -4.15%, CCCn1cc(S(=O)(=O)c2cc(C)ccc2C)c(=O)c2cc(F)c(N3CCCCCC3)cc21 -43.8%, COc1ccc(-c2cc(-c3ccccc3)nc3c2COc2ccccc2-3)cc1 -0.585%, Cc1cccc(CCNC(=O)c2ccc3c(c2)nc2n3CCCCC2)c1 -7.16%, Cc1nc2c(-c3ccc(F)cc3)c(C)nn2c(C)c1CCC(=O)N1CCN(c2ccc(F)cc2)CC1 -21.3%
